Values marked as one replicate rest on one cluster of the flow cell; about a third of the high ones do not repeat.

This series relates to ATP. Kind of series: switch fluorescence ratio, 500 uM ATP over buffer (Cy3 cluster intensity, sum of 5 cycles each) (fold (ratio)); higher = stronger signal-on switching upon ATP binding; sequences stand for … in TCGTCGGCAGCGTCAGATGTGTATAAGAGACAGTTTTTTTTTTTTTTTTTTTTTTTTT…TC. Conditions: aptamer strand: ATP DNA aptamer (quencher-CACCTGGGGGAGTATTGCGGAGGAAGG + anchor), 100 nM annealed; ATP concentration: 500 uM; one replicate. In short, it runs like this: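 Clusters with intensities outside 100-1000 RFU were excluded. The remaining Cy3-labelled switching-strand clusters on a modified Illumina MiSeq flow-cell had been annealed to 100 nM quencher-labelled ATP aptamer and imaged in selection buffer, then after 15 min with 500 uM ATP at 22 °C, for five cycles separated by NaOH stripping and re-annealing. The fluorescence ratio, averaged per switch-domain sequence, is each cluster's summed target-cycle Cy3 intensity over its summed buffer-cycle Cy3 intensity.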
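Further: ATP exposure 15 min at 22 °C before imaging.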

As to ATAAGAAAAA, the switch fluorescence ratio stood at 1.08.

As for AAGATATTGT, the switch fluorescence ratio was 0.987.

Turning to TTCCCTTGGC, the switch fluorescence ratio was 0.93.

Take TATGCTGAAC: the switch fluorescence ratio came to 1.06.

For CAATATTCGT, the switch fluorescence ratio was 1.

AAGCGTGCGG: the switch fluorescence ratio turned out to be 1.01.

On to TTGCGTATAC, for which the switch fluorescence ratio was found to be 3.26.

Turning to ATCTTATTCC, the switch fluorescence ratio was 1.09.

As to GTCAGAACCA, the switch fluorescence ratio was 1.03.

For the sequence CAGGGGCGCT, the switch fluorescence ratio is 1.18.

ACATTCATAA: the switch fluorescence ratio is 1.05.

For the sequence GTAACATCTT, the switch fluorescence ratio amounted to 0.97.

TGTCCGTTGC: the switch fluorescence ratio came to 1.11.

For the sequence ATGTCCGATG, the switch fluorescence ratio was found to be 1.01.

As for CTCTGTAAGT, the switch fluorescence ratio was determined as 1.12.

For the sequence CATAGTAATC, the switch fluorescence ratio amounted to 1.91.

As to TGTCAAACTG, the switch fluorescence ratio is 1.03.

As to CGCTTATGCC, the switch fluorescence ratio was found to be 1.

For the sequence ACGATAAAGG, the switch fluorescence ratio amounted to 1.08.

For the sequence TTTCATAACT, the switch fluorescence ratio was found to be 1.02.

Consider TGAGTATTCA, for which the switch fluorescence ratio turned out to be 0.986.

Regarding AGACGTACAG, the switch fluorescence ratio was 1.07.

For the sequence TGTAGACT, the switch fluorescence ratio was 1.04.
